# Experimental data taken from article PMC7819943, “Rice protein-binding microarrays: a tool to detect cis-acting elements near promoter regions in rice”.
# Some of the results follow.
# Biological target: T1, OsWOX13 (Oryza sativa, UniProt Q5QMM3 1-267)
# T1 sequence: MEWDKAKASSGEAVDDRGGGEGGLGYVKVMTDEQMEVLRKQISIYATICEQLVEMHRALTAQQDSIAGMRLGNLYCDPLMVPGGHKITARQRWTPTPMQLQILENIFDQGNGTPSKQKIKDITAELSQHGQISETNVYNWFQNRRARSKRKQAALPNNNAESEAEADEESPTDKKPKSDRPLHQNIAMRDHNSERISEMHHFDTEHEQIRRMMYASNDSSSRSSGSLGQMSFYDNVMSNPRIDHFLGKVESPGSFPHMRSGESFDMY
# Experiment: protein-binding microarray (RPBM); PBS, 2% BSA, 51.3 ng/ul salmon testes DNA, 50 uM zinc acetate, 200 nM TF, 25 C, 1 h; high values mean tight binding
# Settings: protein: recombinant; tags: N-terminal polyhistidine and DsRed monomer fusion (pET32a); label: CyDye5-dUTP incorporated in the synthesized complementary strand; 3' TTTTT single-stranded linker to array surface; dsDNA, one strand shown
# Method in brief: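 Binding signal here means per-feature fluorescence intensity in arbitrary units. The values were read on an Axon 4000B scanner after a custom Agilent array, double-stranded by primer extension with Cy5-dUTP, was incubated with 200 nM protein at 25 °C for 1 h in PBS with 2% BSA, salmon testes DNA and 50 µM zinc acetate, then washed. The proteins were transcription factors with an N-terminal polyhistidine tag and DsRed, expressed in E. coli BL21-CodonPlus and purified on Ni–NTA.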
row,Sequence,binding signal
1,TATTTTAATTTTATTATTGTTATACGATTTAGTTAAGGTGCGGAGTCACCTAGTGCAG,6840 fluorescence intensity (a.u.)
2,CATTCATATTGATGTTAATAAATTAATATAGATATATATGCGGAGTCACCTAGTGCAG,3590 fluorescence intensity (a.u.)
3,TCCACCAATCAGGATTGCAGGATATGAATGAGGCGAGATGCGGAGTCACCTAGTGCAG,14700 fluorescence intensity (a.u.)
4,TATAATTTATATGTATAGGCAGTCTCAGTATAATTTGGTCCGGAGTCACCTAGTGCAG,19000 fluorescence intensity (a.u.)
5,ACAGTTTCAATCAGTTGTAAAACCAGGCGTTTGATGTGGGCGGAGTCACCTAGTGCAG,12500 fluorescence intensity (a.u.)
6,ACCAAATTAGGCGTATCCAATCCAATCCTCCAAGCGAAGCCGGAGTCACCTAGTGCAG,7630 fluorescence intensity (a.u.)
7,TCTTTTAACTAATCAAAACCGGTCAACAATATGTCCCTCGCGGAGTCACCTAGTGCAG,5410 fluorescence intensity (a.u.)
8,ATATAATTATGAGCAAAAGAGATACATCTAATTGTGATCTCGGAGTCACCTAGTGCAG,17000 fluorescence intensity (a.u.)
9,TCTGATAACCACATGATTACGGCCCCGTCGACGCTGTGCACGGAGTCACCTAGTGCAG,8630 fluorescence intensity (a.u.)
10,TTAGATTGAAATCGTATGGTGACAAAATTTGACAGATTCTCGGAGTCACCTAGTGCAG,36700 fluorescence intensity (a.u.)
11,AGACCTAATTACCACTACAGCCGCGACCTCGATTTTGTTTCGGAGTCACCTAGTGCAG,12300 fluorescence intensity (a.u.)
12,CATTAAATAAAAGATTTTCTAATCACCTGATCATTTGCTACGGAGTCACCTAGTGCAG,6820 fluorescence intensity (a.u.)
13,GTAGATTGGTAGCTAACTTTTCAGAATCTATAGAAACCACCGGAGTCACCTAGTGCAG,42800 fluorescence intensity (a.u.)
14,TCTCACAGATTTGCTTAATTTCTATATCTAAGCTGACTATCGGAGTCACCTAGTGCAG,10300 fluorescence intensity (a.u.)
15,TTAATTGCTATGTTTTGACCAGTCAACGCATAGGTCGTTTCGGAGTCACCTAGTGCAG,15500 fluorescence intensity (a.u.)
16,GGTGCTTGATTAATACAGCTTTTCAATTTTAAGCTGGGTGCGGAGTCACCTAGTGCAG,23100 fluorescence intensity (a.u.)
17,ATTTGATCCAAATTATATGGTTATTAATCAAATCCCATAGCGGAGTCACCTAGTGCAG,10200 fluorescence intensity (a.u.)
18,TATTAGAAATAATTATCATGAAAGGCATAATCTCCTCGAACGGAGTCACCTAGTGCAG,3800 fluorescence intensity (a.u.)
19,TCCAATGATTGTGTGATAATAGGAGCATATAATCCCAGATCGGAGTCACCTAGTGCAG,35100 fluorescence intensity (a.u.)
20,GGGAGATAATGAGAAGATTTTGTGGTTTCTTTTGGTGCCCCGGAGTCACCTAGTGCAG,3770 fluorescence intensity (a.u.)
21,GATATTGATTTGGTCATCAACCTCAAACTCCGAGAAGAGGCGGAGTCACCTAGTGCAG,32600 fluorescence intensity (a.u.)
22,ACGAATCTTTTAAGCCTAATTAATCCGTCATTAGCACATGCGGAGTCACCTAGTGCAG,3560 fluorescence intensity (a.u.)
23,CAGATTAACGTTAATATAGGAGTAGTTAAATAATGCATTTCGGAGTCACCTAGTGCAG,10600 fluorescence intensity (a.u.)
24,TATAACAAATGAATGAATTTGATGTATATTTGGTTTGGAACGGAGTCACCTAGTGCAG,7530 fluorescence intensity (a.u.)
25,TAATTTGCATTCATCACTGCTGATTGAGACGGTGACAACTCGGAGTCACCTAGTGCAG,24600 fluorescence intensity (a.u.)
26,TAAGATAATATAGATAGATGGATAAATACATCAGGAGTCTCGGAGTCACCTAGTGCAG,9040 fluorescence intensity (a.u.)
27,CACGGTAATTACTACTACCACTACAGCAGCAGCCAAAACCCGGAGTCACCTAGTGCAG,18200 fluorescence intensity (a.u.)

row,Sequence,binding signal
1,CCCATAATTTCACCACCAAACACATCCATGTGCATTGGAACGGAGTCACCTAGTGCAG,6210 fluorescence intensity (a.u.)
2,TTCCACTAATTAATCAGGTACTGTGTGATGATCGTGTTGACGGAGTCACCTAGTGCAG,20100 fluorescence intensity (a.u.)
3,CGCATTTAATTAATTTAGCTTGCATTTCAATTCAAATTTACGGAGTCACCTAGTGCAG,20400 fluorescence intensity (a.u.)
4,ATTAACTTGAAGTATATATTGATTTGTTACCCCGCTAGGCCGGAGTCACCTAGTGCAG,9740 fluorescence intensity (a.u.)
5,TTATTTAACTACATTAAATTGTTGATCATGCTAGTTATTACGGAGTCACCTAGTGCAG,7560 fluorescence intensity (a.u.)
6,TACCATATCTTGGCCGTTGATTAGATGCAATCTAACGGCTCGGAGTCACCTAGTGCAG,4580 fluorescence intensity (a.u.)
7,TTGATAAATTATATGGTACGATTTATTTAAAGTTGCGTGCCGGAGTCACCTAGTGCAG,25000 fluorescence intensity (a.u.)
8,GGCCGTTAATTTGCCGTCAAGGAGCCACCATGGCACGAGACGGAGTCACCTAGTGCAG,14600 fluorescence intensity (a.u.)
9,TTTGTTATAATTGATATTTAATTAATCATATGGTAATTACCGGAGTCACCTAGTGCAG,27800 fluorescence intensity (a.u.)
10,TATATTGATGATTACTTTCTGATGCAATTGGCTGTGCAGTCGGAGTCACCTAGTGCAG,40500 fluorescence intensity (a.u.)
11,TCTTGATTATCGGTGTGGCAGTGGCAGTTCAGTGGCACTGCGGAGTCACCTAGTGCAG,14700 fluorescence intensity (a.u.)
12,AGAAATTTATCGACTACATTGATTTGGATCGATGTTGAAGCGGAGTCACCTAGTGCAG,11500 fluorescence intensity (a.u.)
13,TAATAATAATAATAATGCAAATTACCAAAATATAAGCCCACGGAGTCACCTAGTGCAG,6280 fluorescence intensity (a.u.)
14,TCCTCTCTTGATTATGTGGGTCTCGTTTTCTCTTACACTGCGGAGTCACCTAGTGCAG,10300 fluorescence intensity (a.u.)
15,GATTACAGACTGACAGTTAAATTGGTTCGCTAAGTGTGATCGGAGTCACCTAGTGCAG,24100 fluorescence intensity (a.u.)
16,CACTTACTGACGTAAACAGCAGAATATTTCCTGTGTATTGCGGAGTCACCTAGTGCAG,3970 fluorescence intensity (a.u.)
17,AAAGATTGGGTCAGGCTTGAGTGTTTGTTCCAACGATTCGCGGAGTCACCTAGTGCAG,6630 fluorescence intensity (a.u.)
18,ATCATAACTCCATCAGATAATTTGTGCAGAACGGCAGAACCGGAGTCACCTAGTGCAG,5500 fluorescence intensity (a.u.)
19,CACTCAAATTAGCATAATCAACTCCGTAGACAAGCAGGCACGGAGTCACCTAGTGCAG,31400 fluorescence intensity (a.u.)
20,CTATGATGTTCTATTCAATTATTTTGTTTGTTCTTGTTATCGGAGTCACCTAGTGCAG,3910 fluorescence intensity (a.u.)
21,TTTAATGGAGAAGATGCCATAGTTAATTGCATGCTTGCATCGGAGTCACCTAGTGCAG,14600 fluorescence intensity (a.u.)
22,AAAGTCAAAATTTGATTGCAGTATAGCTCTGACCTGAAATCGGAGTCACCTAGTGCAG,6520 fluorescence intensity (a.u.)
23,ATTAATTTTCTTGTAATATTACTCCCTCCATTCCATAATACGGAGTCACCTAGTGCAG,11300 fluorescence intensity (a.u.)
24,ATTGACATTAATGATTAATTGCTAGTGCCCAACCAAAACACGGAGTCACCTAGTGCAG,34600 fluorescence intensity (a.u.)
25,TGAAAATTTAGGCTAAATTTCTGGGCGTGACACTAGCCCACGGAGTCACCTAGTGCAG,13400 fluorescence intensity (a.u.)
26,GTAATTGACAACTGACAACCGACAGTTATTGACTCATTCCCGGAGTCACCTAGTGCAG,54900 fluorescence intensity (a.u.)
27,AAACTATTTATATAAATTATATGTAATAACCTGCTGATTACGGAGTCACCTAGTGCAG,8500 fluorescence intensity (a.u.)
